Article PMC7337490
Results are given in words; binding and its absence hold for the method and conditions named.

Protein sequences, listed by entry. Tags and fused reporters are not part of them. Lines headed by an entry give the natural chain unless they say otherwise; changes in a name come on top.
UniProt O15392: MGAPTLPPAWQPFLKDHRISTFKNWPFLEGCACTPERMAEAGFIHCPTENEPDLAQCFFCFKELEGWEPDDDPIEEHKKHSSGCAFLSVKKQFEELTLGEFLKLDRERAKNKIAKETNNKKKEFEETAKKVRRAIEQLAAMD
UniProt Q9NQS7: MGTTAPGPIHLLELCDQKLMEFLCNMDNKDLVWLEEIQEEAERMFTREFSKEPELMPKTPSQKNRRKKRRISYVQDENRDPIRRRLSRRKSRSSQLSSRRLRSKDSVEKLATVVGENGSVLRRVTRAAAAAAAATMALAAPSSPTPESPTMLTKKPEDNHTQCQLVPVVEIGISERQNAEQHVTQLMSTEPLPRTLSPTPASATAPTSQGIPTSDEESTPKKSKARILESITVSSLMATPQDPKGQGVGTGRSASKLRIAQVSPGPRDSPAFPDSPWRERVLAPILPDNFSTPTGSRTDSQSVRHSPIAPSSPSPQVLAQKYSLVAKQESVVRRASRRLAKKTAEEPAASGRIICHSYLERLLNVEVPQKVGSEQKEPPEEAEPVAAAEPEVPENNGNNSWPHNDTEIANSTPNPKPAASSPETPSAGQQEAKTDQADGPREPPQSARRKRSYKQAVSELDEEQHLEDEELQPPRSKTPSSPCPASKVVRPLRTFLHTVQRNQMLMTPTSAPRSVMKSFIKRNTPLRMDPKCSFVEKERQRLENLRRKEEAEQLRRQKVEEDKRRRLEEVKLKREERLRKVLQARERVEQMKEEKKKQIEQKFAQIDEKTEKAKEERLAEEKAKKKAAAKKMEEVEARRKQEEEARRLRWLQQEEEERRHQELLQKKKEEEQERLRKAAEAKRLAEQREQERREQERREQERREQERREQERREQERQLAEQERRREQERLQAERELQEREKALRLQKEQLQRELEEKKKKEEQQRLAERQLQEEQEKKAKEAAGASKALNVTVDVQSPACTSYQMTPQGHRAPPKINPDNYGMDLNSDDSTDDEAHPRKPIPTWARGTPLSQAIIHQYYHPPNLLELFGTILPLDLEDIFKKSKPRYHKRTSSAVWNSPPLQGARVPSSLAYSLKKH
UniProt Q53HL2: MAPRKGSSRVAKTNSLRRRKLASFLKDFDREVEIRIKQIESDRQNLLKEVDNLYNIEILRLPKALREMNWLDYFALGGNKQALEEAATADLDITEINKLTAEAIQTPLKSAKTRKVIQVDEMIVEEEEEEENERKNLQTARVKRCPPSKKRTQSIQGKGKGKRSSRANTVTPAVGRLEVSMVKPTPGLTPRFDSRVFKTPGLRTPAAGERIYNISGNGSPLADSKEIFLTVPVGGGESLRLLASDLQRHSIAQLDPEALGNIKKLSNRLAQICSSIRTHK

Assays:
[1] = target: CPI80 (survivin, INCENP^1-80, borealin^10-109) (human) (UniProt O15392+Q9NQS7+Q53HL2); assay: ITC; 400 µM peptide injected into 50 µM protein; 100 mM NaCl, 20 mM Tris-HCl pH 7.2, 1 mM DTT; 25°C; 1:1 binding model; both purified
[2] = target: CPI80^(Survivin E65A-H80A) (human) (UniProt O15392+Q9NQS7+Q53HL2); assay: as above

| Binder | binding [1] | binding [2] |
| --- | --- | --- |
| KKTESHHKAKG [H2A (119–129) peptide] | no binding (tested: 50 µM protein, 400 µM peptide) |  |
| KKTESHHKAKG (phosphothreonine at 121) [H2ApT121 (119–129) phosphopeptide] | no binding (tested: 50 µM protein, 400 µM peptide) |  |
| ARTKQTARKSTG [H3 (1–12) peptide] |  | no binding (tested: 50 µM protein, 400 µM peptide) |
| ARTKQTARKSTG (phosphothreonine at 3) [H3pT3 (1–12) phosphopeptide] |  | no binding (tested: 50 µM protein, 400 µM peptide) |
